# Test results published in PubChem BioAssay AID1508642 (National Center for Advancing Translational Sciences (NCATS), 2021).
# Out of some 43,000 compounds screened, about 200 (0.47%) were called active. Roughly 12% stayed inconclusive and do not appear here. Calls come from the whole dose curve; as a rule, active = well fitted cell-killing curve with a large enough effect; inconclusive = small, poorly fitted or top-dose-only effect, or effect the other way; inactive = flat fitted curve, though single readings scatter. This is one part of the list.
# Experiment: Cell viability qHTS assay in S16 Pmp22-F2sN cells; note: nearly all actives have a fitted effect of over 65% in size
# Details: S16 Pmp22-F2sN Schwann cells (luciferase reporters placed in the Pmp22 gene) viability, CellTiter-Glo, 24 h; series mostly up to 57.5 µM; activity change, negative = cytotoxicity: at the top concentration
# Outline: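 Rat S16 Schwann reporter line, 24 h treatment with library compounds delivered at 23 nL per well. Cell viability by CellTiter-Glo luminescence.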
# % is set by controls: 0 for no effect and ±100 for the full control effect; potency is the fitted concentration of half-maximal effect.
SMILES,"activity change, negative = cytotoxicity",Potency
CCN1c2ccccc2-c2nc(SCC(=O)Nc3cccc(C)c3C)ncc2S1(=O)=O,inactive: -19.6%,–
CCn1cc(C(=O)N(C)Cc2ccccc2)c(=O)c2cc(S(=O)(=O)N3CCc4ccccc4C3)ccc21,inactive: -0.509%,–
COc1cc(C)ccc1OCCSc1nc2ccc(NC(=O)c3ccco3)cc2s1,inactive: -15.2%,–
CCOC(=O)c1cccc(NC(=O)CCSCCc2ccccn2)c1,inactive: 7.66%,–
COc1cccc(CNC(=O)c2cc3c(-c4ccccc4F)nn(C)c3s2)c1,inactive: -18.8%,–
COc1cc(C2Nc3ccccc3-c3cc(C)nn32)ccc1O (stereo not given),inactive: 0.945%,–
Cc1ccc(NC(=O)Cn2nc(-c3ccccc3)nc(Cc3ccc(Cl)cc3)c2=O)cc1,inactive: -0.235%,–
Cc1noc(-c2ccc(-c3noc(-c4ccc(F)cc4)n3)cc2)n1,inactive: -1.69%,–
COCCn1c(SCC(=O)Nc2cc(Cl)ccc2OC)nc2c([nH]c3ccccc32)c1=O,inactive: -6.56%,–
O=S(=O)(c1ccc(Br)s1)N1CCN(c2cccc(C(F)(F)F)c2)CC1,inactive: 1.58%,–
CCN(CC)c1ncnc2c1cnn2-c1cc(Cl)ccc1C,inactive: -6.54%,–
COc1cc(C(CC(=O)Nc2ccc(C)c(F)c2)N2Cc3ccccc3C2=O)cc(OC)c1OC (stereo not given),inactive: 9.41%,–
CCOc1ccccc1NC(=O)C1CCN(S(=O)(=O)c2c(C)noc2/C=C/c2ccco2)CC1,inactive: -0.0398%,–
O=C1OCC2=C1C(c1cccc(Cl)c1)CC(=O)N2c1ccc(C(F)(F)F)cc1 (stereo not given),inactive: 12.6%,–
Cc1cccc(Cn2cc(S(=O)(=O)c3cccc(Cl)c3)c(=O)c3cc(F)c(N4CCOCC4)cc32)c1,inactive: 9.87%,–
CCOC(=O)c1c(C)[nH]c(C)c1S(=O)(=O)N(C)CC(=O)Nc1ccc(OC)cc1,inactive: -26.5%,–
COc1ccc(CC(=O)Nc2c(C(=O)N3CCN(c4ccccc4)CC3)oc3ccccc23)cc1OC,inactive: -3.59%,–
Cn1c(=O)c2nc(SCC(=O)Nc3ccc(OC(F)(F)F)cc3)n(C)c2n(C)c1=O,inactive: -2.04%,–
COc1cc(OC)cc(-c2cc3nc(C)c(CCC(=O)NCCc4cccc(C)c4)c(C)n3n2)c1,inactive: -17.6%,–
COc1cc(NC(=O)Cn2nc(C(F)(F)F)c3c2CCC3)cc(OC)c1OC,inactive: -9.56%,–
O=C(CCn1c(=O)c2ccccc2n(CC(=O)Nc2cccc(F)c2)c1=O)NCCc1ccccc1,inactive: 7.5%,–
COC(=O)Cn1c(C2CC(=O)N(c3c(C)cccc3C)C2)nc2ccccc21 (stereo not given),inactive: 8.09%,–
Cc1cc(NC(=O)CCc2nc3cccnc3n2-c2ccccc2)ccc1Br,inactive: 7.38%,–
O=C(CCNS(=O)(=O)c1ccc2c(c1)CCCC(=O)N2)Nc1cccc(Cl)c1,inactive: 1.51%,–

SMILES,"activity change, negative = cytotoxicity",Potency
O=C(NCCc1ccccc1)c1ccc(CS(=O)Cc2ccc(Cl)cc2)o1 (stereo not given),inactive: 12.1%,–
COc1ccc(C(=O)c2c(N)c(-c3nc(-c4ccc5c(c4)OCO5)cs3)c3ccccn23)cc1,inactive: 13.1%,–
O=C(Nc1ccc(F)cc1F)C1CCN(c2ncccn2)CC1,inactive: 5.28%,–
O=S(=O)(c1ccc(C2CCCCC2)cc1)N1CCN(c2ccc(Cl)c(Cl)c2)CC1,inactive: 18.5%,–
CC(=O)Nc1ccc(NC(=O)c2oc3c(c2C)-c2nn(Cc4ccccc4Cl)cc2CC3)cc1,inactive: 16.9%,–
CCCCC(=O)Nc1ccc2nc(SCC(=O)N3CCc4ccccc43)sc2c1,inactive: 14.2%,–
Cc1cccc(NC(=O)Cn2nc(-c3ccccc3)c3cnc4ccccc4c32)c1,inactive: -1.09%,–
CCOc1ccc(-n2cc(-c3ccccc3)c3c(NCCc4ccccc4)ncnc32)cc1,inactive: -20.6%,–
CCc1cccc(NC(=O)CCn2c(=O)c3cccn3c3cccnc32)c1,inactive: 14.2%,–
Cc1ccc(Nc2ccc3cc(S(=O)(=O)N4CCC(C)CC4)ccc3n2)c(Cl)c1,inactive: 1.28%,–
CCOC(=O)N1CCc2c(sc3c2c(=O)n(Cc2ccccc2)c(=O)n3CC(=O)Nc2cccc(CC)c2)C1,inactive: 6.82%,–
O=C(CCn1c(=O)c2sccc2n(Cc2ccccc2F)c1=O)NCc1ccc2c(c1)OCO2,inactive: -20.4%,–
COC(=O)c1ccccc1NC(=O)c1cc(-c2ccccc2O)no1,inactive: -25.5%,–
CC(=O)Nc1nonc1-c1nnc(SCC(=O)Nc2ccc(C)cc2)n1-c1ccccc1,inactive: -10.3%,–
CCOC(=O)c1sc2cccc(F)c2c1S(=O)(=O)NCc1ccccc1Cl,inactive: 16.1%,–
O=C(CS(=O)(=O)c1cccc2nsnc12)N1CCN(c2cccc(Cl)c2)CC1,inactive: -14.9%,–
COc1ccc(NC(=O)CN2C(=O)CCn3nc(-c4cccn4C)cc32)cc1Cl,inactive: 6.6%,–
O=S(=O)(c1ccc(-c2cc(C(F)(F)F)on2)s1)N1CCN(c2ccccc2F)CC1,inactive: 1.81%,–
Cc1cccc(NC(=O)Cn2nnc(-c3nc(-c4ccncc4)no3)c2N)c1,inactive: -1.85%,–
Cc1ccc(NC(=O)CN2C(=O)c3ccccc3Sc3ccc(C(=O)N4CCOCC4)cc32)cc1F,inactive: 0.434%,–
COc1cccc(N2CCN(C(=O)c3ccc(C)c(NC(=O)c4nsc5ccccc45)c3)CC2)c1,inactive: -11.8%,–
Cc1ccc(N(CC(=O)NCCc2ccc(Cl)cc2)S(=O)(=O)c2c(C)noc2C)cc1,inactive: 5.49%,–
Cc1ccc(C(c2sc3nc(-c4ccco4)nn3c2O)N2CCCC2)cc1 (stereo not given),inactive: 21.5%,–
CCc1cccc(NC(=O)COC(=O)c2cn(CC)c3nc(C)ccc3c2=O)c1,inactive: 19%,–

SMILES,"activity change, negative = cytotoxicity",Potency
COc1ccc(CNC(=O)c2ccc(-c3nc(CSc4ccccc4)c(C)o3)cc2)cc1OC,inactive: -1.36%,–
COc1ccc(CNC(=O)CSCc2nc(-c3ccccc3C)oc2C)cc1,inactive: -13.9%,–
CCCc1cc(=O)[nH]c(SCC(=O)N2CCN(c3ccccc3)CC2)n1,inactive: 6.45%,–
CCc1ccc(-n2c(=O)c3c4c(sc3n(CC(=O)c3ccc(F)cc3)c2=O)CCC4)cc1,inactive: -18.7%,–
COc1ccc(-c2ccc3c(N)c(C(=O)c4ccc(OC)c(OC)c4)sc3n2)cc1,inactive: -0.62%,–
CCC(C)NC(=O)CCCN1C(=O)CCn2nc(-c3cccn3C)cc21 (stereo not given),inactive: 4.73%,–
CC(C)c1nn2c(=O)cc(COC(=O)c3ccc(NC(=O)COc4ccccc4)cc3)nc2s1,inactive: 7.47%,–
Cc1cc(C)c(Cn2c3ccccc3c3cnn(CC(=O)NCc4cccs4)c(=O)c32)c(C)c1,inactive: 4.38%,–
Cc1ccccc1CNC(=O)c1ccc2c(c1)c(C)c(C)n2C,inactive: -0.631%,–
CN(C)c1ccc(CNC(=O)c2ccc(Cn3c(SCc4ccccc4)nc4cccnc43)cc2)cc1,inactive: -14.5%,–
Cc1ccc(Cl)cc1NC(=O)C1CCN(c2nnc(C)c3c(C)n(-c4ccccc4)nc23)CC1,inactive: 1.53%,–
CCc1ccc(CNC(=O)c2cnc3sc(N4CCCC4)nn3c2=O)cc1,inactive: -0.72%,–
CCS(=O)(=O)N1CCCC(C(=O)NCCOC)C1 (stereo not given),inactive: -2.72%,–
Cc1ccc(NC(=O)CSc2nnc(-c3ccc([N+](=O)[O-])cc3)o2)c(C)c1,inactive: 0.66%,–
Cc1ccc(C(=O)c2cn(CC(=O)Nc3ccc(C(C)C)cc3)c3nc(C)ccc3c2=O)cc1,inactive: -1.45%,–
CCOc1ccc(C(=O)Cn2c(=O)n3nc(CCn4nc(C)cc4C)nc3c3cc(OC)c(OC)cc32)cc1,inactive: 0.64%,–
Cc1ccccc1N1CCN(S(=O)(=O)c2nnc(NC(=O)c3ccc(C(C)C)cc3)s2)CC1,inactive: -6.72%,–
COc1cc(NC(=O)c2cc(C3CC3)nc3c2c(C)nn3-c2ccccc2)cc(OC)c1,inactive: -18.6%,–
Cc1ccccc1NC(=O)CC(NCc1cccnc1)C(=O)O (stereo not given),inactive: 14.2%,–
Cc1cc(C)cc(NC(=O)Cn2c(-c3cncs3)nc3ccccc32)c1,inactive: 19.6%,–
Cc1cc(C)n(-c2nc3ccccc3nc2Nc2ccc(N(C)C)cc2)n1,inactive: 2.43%,–
COc1ccccc1OC(C)C(=O)Nc1cccc(-c2nc3ccccc3s2)c1 (stereo not given),inactive: -13%,–
COc1ccc(-n2nc(C(=O)Nc3ccccn3)c3c4ccccc4n(C)c3c2=O)cc1,inactive: 17.8%,–
CCOC(=O)c1ccc(NC(=O)c2cnc3c(-c4ccc(F)cc4)c(C)nn3c2C)cc1,inactive: -17.4%,–

SMILES,"activity change, negative = cytotoxicity",Potency
CCOc1ccc(-c2nc3c(c(SCC(=O)Nc4ccccc4C)n2)Cc2ccccc2O3)cc1,inactive: 0.712%,–
COCCCNc1nc(NCc2ccccc2OC)c2cnn(C)c2n1,inactive: -0.283%,–
COc1ccc(Br)cc1C1C(C(=O)Nc2ccc(C)cc2C)=C(C)Nc2ncnn21 (stereo not given),inactive: 26.2%,–
Cc1ccc(NC(=O)C2(c3cccs3)CCOCC2)cc1Cl,inactive: 8.41%,–
CCOc1ccccc1NC(=O)c1c(NC(=O)COc2ccc(Cl)cc2)sc2c1CCCCC2,inactive: 2.97%,–
COCCNC(=O)CCC(=O)NNc1nc2ccccc2c2nc(C)nn12,inactive: -1.8%,–
CS(=O)(=O)N1CCc2cc(C(=O)N3CCN(c4cccc(Cl)c4)CC3)ccc21,inactive: -8.38%,–
O=C(NCCc1ccccc1)c1nn(-c2ccccc2F)nc1CO,inactive: -2.7%,–
Cc1ccc2c(CNCCc3ccccc3)c(C(=O)O)n(Cc3ccccc3C)c2c1,inactive: 13.1%,–
COc1cccc(NC(=O)Cn2nnc(C(=O)NCc3cccs3)c2N)c1,inactive: -0.991%,–
COc1ccc(NC(=O)Cn2c(=O)n(-c3cc(C)cc(C)c3)c(=O)c3oc4ccccc4c32)cc1OC,inactive: -29.7%,–
Cc1ccc(C)c(CSc2nnc3[nH]c(=O)cc(C)n23)c1,inactive: -13.5%,–
Cc1ccc(S(=O)(=O)n2nc(C)c(S(=O)(=O)N3CCCCCC3)c2C)cc1,inactive: 10.5%,–
CCC(Cn1nnc2ccccc2c1=O)NC(=O)Nc1cc(C)cc(C)c1 (stereo not given),inactive: 1.69%,–
CC(C)C(=O)Nc1nnc2n1CCS2,inactive: 8.23%,–
Cc1nc(N2CCCC2)c2c(C(=O)N3CCN(c4ccccc4)CC3)c(C)oc2n1,inactive: -3.14%,–
CCOc1cc2sc(N3CCC(C(=O)Nc4ccc(CC)cc4)CC3)nc2cc1Br,inactive: 0.687%,–
CCc1ccc(C(=O)c2cn(CC(=O)Nc3ccc(Cl)cc3)c3cc4c(cc3c2=O)OCO4)cc1,inactive: -0.748%,–
Cc1ccc(Nc2nc3nonc3nc2Nc2cccc(C(F)(F)F)c2)cc1Cl,–,active: 11.2 µM
CCOC(=O)C1=C(CN2CCN(c3ccc(OC)cc3)CC2)NC(=O)NC1c1ccc(OC)cc1 (stereo not given),inactive: 0.685%,–
CCN(CC)CCCNc1oc(/C=C/c2ccc(OC)c(OC)c2)nc1C#N,inactive: 5.64%,–
COc1ccc(NC(=O)Cn2cc(S(=O)(=O)N3CCN(c4ccccc4F)CC3)c3ccccc3c2=O)cc1Cl,inactive: 2.72%,–
CCOc1ccc(-c2cc(C(=O)N3CCN(c4cc(Cl)ccc4C)CC3)c3ccccc3n2)cc1,inactive: -5.22%,–
